# According to a collection of fitness landscapes (doi:10.1016/j.celrep.2020.107928):
# Whole data set: some 81,000 sequences, median “one-hybrid fitness for binding parS DNA” near -0.17, cut for the highest 2% near 0.51. Some of the results follow.
# B1: Caulobacter ParB omega fusion; a variant is named by its letters at X, in order, B8GW30 (parent)
# chain: MESVVVGEPGMSEGRRGLGRGLSALLGEVDAAPAQAPGEQLGGSREAPIEILQRNPDQPRRTFREEDLEDLSNSIREKGVLQPILVRPSPDTAGEYQIVAGERAWRAAQRAGLKTVPIMVRELDDLAVLEIGIIENVQRADLNVLEEALSYKVLMEKFERTQENIAQTIGKSXSHVANXMRLLXLPDEVQSYLVSGELTAXHARAIAAAADPVALAKQIIEGGLSVRETEALARKAPNLSAGKSKGGRPPRVKDTDTQALESDLSSVLGLDVSIDHRGSTGTLTITYATLEQLDDLCNRLTRGI
# Variants of: B1
# Test: one-hybrid fitness for binding parS DNA (scaled: cognate 1, non-cognate 0); higher = stronger binding
# Conditions: with parS DNA site
# Outline: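 Values were rescaled so that cognate is 1 and non-cognate is 0. Each is a fitness, the log change in a variant's read ratio to wild type from Illumina reads of plasmids before and after selection, with three replicate libraries pooled and variants under 10 reads dropped. Selection of the Caulobacter ParB libraries, four specificity codons randomised, used E. coli USO with a HIS3 reporter, site 19 bp from the promoter, on M9-minus-histidine with 0.1 mM IPTG and 5 mM 3-AT for 48 hours at 37°C.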
row,Variant,one-hybrid fitness for binding parS DNA
1,MVFR,≤ 0.2
2,MYQT,≤ 0.2
3,VSPS,≤ 0.2
4,SRQP,≤ 0.2
5,VGEV,≤ 0.2
6,FASI,≤ 0.2
7,IEHL,≤ 0.2
8,YSVM,≤ 0.2
9,HQHL,≤ 0.2
10,PLKT,≤ 0.2
11,REYL,≤ 0.2
12,KCDR,≤ 0.2
13,LPAP,≤ 0.2
14,TWLC,≤ 0.2
15,KGRN,≤ 0.2
16,HRVG,≤ 0.2
17,RYVL,≤ 0.2
18,NTST,≤ 0.2
19,PHMR,≤ 0.2
20,HHPF,≤ 0.2
21,EGKR,≤ 0.2
22,TQVT,≤ 0.2
23,HHNT,≤ 0.2
24,DNRN,≤ 0.2
25,WGHG,≤ 0.2

row,Variant,one-hybrid fitness for binding parS DNA
1,QKPQ,≤ 0.2
2,AYSR,≤ 0.2
3,RAIN,0.301
4,ANIE,≤ 0.2
5,ATHS,≤ 0.2
6,KGFT,≤ 0.2
7,HSKA,≤ 0.2
8,TIKC,≤ 0.2
9,SNPQ,≤ 0.2
10,VWHC,≤ 0.2
11,LAAC,≤ 0.2
12,RTFQ,0.26
13,ITYR,≤ 0.2
14,ERRH,≤ 0.2
15,DRCM,≤ 0.2
16,QDKT,≤ 0.2
17,LMHW,≤ 0.2
18,MSTI,≤ 0.2
19,VQRN,≤ 0.2
20,PLFM,≤ 0.2
21,RQLN,0.439
22,VSYP,≤ 0.2
23,LQST,≤ 0.2
24,QAKH,≤ 0.2
25,EQYF,≤ 0.2

row,Variant,one-hybrid fitness for binding parS DNA
1,KGHN,≤ 0.2
2,HRMS,0.341
3,SNHS,≤ 0.2
4,CHSH,≤ 0.2
5,KSFC,≤ 0.2
6,RQCT,0.846
7,YILP,≤ 0.2
8,RSEP,≤ 0.2
9,HPPI,≤ 0.2
10,KVQC,≤ 0.2
11,MPKL,≤ 0.2
12,RDRM,≤ 0.2
13,IHNN,≤ 0.2
14,QIEE,≤ 0.2
15,ILSS,≤ 0.2
16,TRHD,≤ 0.2
17,REHG,0.236
18,TTLT,≤ 0.2
19,WPQV,≤ 0.2
20,PSIM,≤ 0.2
21,LSPV,≤ 0.2
22,QIAS,≤ 0.2
23,LIAK,≤ 0.2
24,TQQH,≤ 0.2
25,GSGC,≤ 0.2

row,Variant,one-hybrid fitness for binding parS DNA
1,PLDA,≤ 0.2
2,QHWF,≤ 0.2
3,AGQV,≤ 0.2
4,PVGQ,≤ 0.2
5,GRQT,≤ 0.2
6,QQRT,≤ 0.2
7,QRTS,≤ 0.2
8,GTQC,≤ 0.2
9,NMDM,≤ 0.2
10,FTPH,≤ 0.2
11,VLNW,≤ 0.2
12,MLQK,≤ 0.2
13,LCPL,≤ 0.2
14,RQNN,0.435
15,SPDE,≤ 0.2
16,HRYT,0.202
17,TVPA,≤ 0.2
18,NETV,≤ 0.2
19,SYYM,≤ 0.2
20,DNLY,≤ 0.2
21,IMHE,≤ 0.2
22,ATMH,≤ 0.2
23,PRRI,≤ 0.2
24,SNHD,≤ 0.2
25,LLNK,≤ 0.2

row,Variant,one-hybrid fitness for binding parS DNA
1,GLPE,≤ 0.2
2,LAEM,≤ 0.2
3,ESRP,≤ 0.2
4,TKAE,≤ 0.2
5,ARGC,≤ 0.2
6,QMWG,≤ 0.2
7,DGAK,≤ 0.2
8,YCPV,≤ 0.2
9,GWLG,≤ 0.2
10,CIYD,≤ 0.2
11,TAMY,≤ 0.2
12,AVKV,≤ 0.2
13,GNLL,≤ 0.2
14,PQPE,≤ 0.2
15,CCTP,≤ 0.2
16,FRPH,≤ 0.2
17,ENSR,≤ 0.2
18,QGVI,≤ 0.2
19,WRDT,≤ 0.2
20,YTHT,≤ 0.2
21,WAFC,≤ 0.2
22,CHTE,≤ 0.2
23,ANEM,≤ 0.2
24,RSKH,0.274
25,RPWT,≤ 0.2

row,Variant,one-hybrid fitness for binding parS DNA
1,RGWN,≤ 0.2
2,QAKD,≤ 0.2
3,STTL,≤ 0.2
4,NPMR,≤ 0.2
5,YAVS,≤ 0.2
6,AQDS,≤ 0.2
7,IQDS,≤ 0.2
8,RCPQ,≤ 0.2
9,GCWR,≤ 0.2
10,KAGT,≤ 0.2
11,PNYA,≤ 0.2
12,YGPR,≤ 0.2
13,DTYA,≤ 0.2
14,GALY,≤ 0.2
15,YAEK,≤ 0.2
16,PDPE,≤ 0.2
17,RPWA,≤ 0.2
18,RELR,≤ 0.2
19,IGYC,≤ 0.2
20,SVLS,≤ 0.2
21,QEVC,≤ 0.2
22,HHEC,≤ 0.2
23,SMDF,≤ 0.2
24,ADLF,≤ 0.2
25,PLKW,≤ 0.2

row,Variant,one-hybrid fitness for binding parS DNA
1,ENIK,≤ 0.2
2,QPTK,≤ 0.2
3,AVDR,≤ 0.2
4,RVMM,0.287
5,RQYS,1
6,VVLG,≤ 0.2
7,QVPM,≤ 0.2
8,EPVR,≤ 0.2
9,WKKR,≤ 0.2
10,TAPM,≤ 0.2
11,DNRY,≤ 0.2
12,RIDQ,≤ 0.2
13,NRWA,≤ 0.2
14,LREF,≤ 0.2
15,AYQY,≤ 0.2
16,EKEG,≤ 0.2
17,ESQE,≤ 0.2
18,PTIY,≤ 0.2
19,IFTG,≤ 0.2
20,ASTH,≤ 0.2
21,SAYT,≤ 0.2
22,EVSV,≤ 0.2
23,ITHW,≤ 0.2
24,KRSL,≤ 0.2
25,SYGF,≤ 0.2

row,Variant,one-hybrid fitness for binding parS DNA
1,QRSF,≤ 0.2
2,NQTF,0.258
3,VYHA,≤ 0.2
4,RSMH,0.245
5,QQGF,≤ 0.2
6,LKFS,≤ 0.2
7,PNTF,≤ 0.2
8,RLCR,≤ 0.2
9,GMYA,≤ 0.2
10,AEHS,≤ 0.2
11,TFRD,≤ 0.2
12,NEQS,≤ 0.2
13,LIHA,≤ 0.2
14,KSQI,≤ 0.2
15,GDDT,≤ 0.2
16,KGYF,≤ 0.2
17,QGDT,≤ 0.2
18,LDIS,≤ 0.2
19,LYYC,≤ 0.2
20,GQSM,≤ 0.2
